Experimental data taken from the supplement of paper PMC8948288.
Shown are siRNA guide strands that differ only in the seed, positions 2 to 7.

Legend:
GL261 = experiment: cell viability relative to siNT1 (ATP content); H4 human neuroglioma and GL261 mouse glioma; higher = less toxic; conditions: siRNA concentration 25 nM; 96 h; mouse
H4 = experiment: as above; conditions: siRNA concentration 10 nM; 96 h; human
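Note: cells reverse transfected with siRNA duplexes via lipid reagent, ATP read by luminescence, triplicate wells, values scaled to mean viability with non-targeting control siNT1.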

| Sequence | cell viability (GL261) [%] | cell viability (H4) [%] |
| --- | --- | --- |
| UCUUCGGACAUGUAAACCA | 41.2 | 80.3 |
| UCUUCGUACAUGUAAACCA | 45.6 | 99.6 |
| UCUUCUAACAUGUAAACCA | 82.3 | 94.8 |
| UCUUCUCACAUGUAAACCA | 28.6 | 77.2 |
| UCUUCUGACAUGUAAACCA | 54.3 | 101 |
| UCUUCUUACAUGUAAACCA | 56.5 | 94.6 |
| UCUUGAAACAUGUAAACCA | 62.5 | 105 |
| UCUUGACACAUGUAAACCA | 14.8 | 97 |
| UCUUGAGACAUGUAAACCA | 49.8 | 73 |
| UCUUGAUACAUGUAAACCA | 56.8 | 70.3 |
| UCUUGCAACAUGUAAACCA | 68.6 | 95.8 |
| UCUUGCCACAUGUAAACCA | 7.29 | 6.28 |
| UCUUGCGACAUGUAAACCA | 46.6 | 98 |
| UCUUGCUACAUGUAAACCA | 17.9 | 74.6 |
| UCUUGGAACAUGUAAACCA | 44.7 | 41.8 |
| UCUUGGCACAUGUAAACCA | 7.63 | 25 |
| UCUUGGGACAUGUAAACCA | 49.3 | 50.5 |
| UCUUGGUACAUGUAAACCA | 32.7 | 75 |
| UCUUGUAACAUGUAAACCA | 64.9 | 97.9 |
| UCUUGUCACAUGUAAACCA | 41.8 | 98.6 |
| UCUUGUGACAUGUAAACCA | 39.4 | 92.2 |
| UCUUGUUACAUGUAAACCA | 29.3 | 89.4 |
| UCUUUAAACAUGUAAACCA | 52.3 | 113 |
| UCUUUACACAUGUAAACCA | 69.8 | 77.9 |

| Sequence | cell viability (GL261) [%] | cell viability (H4) [%] |
| --- | --- | --- |
| UCUUUAGACAUGUAAACCA | 99.6 | 97.5 |
| UCUUUAUACAUGUAAACCA | 74.5 | 111 |
| UCUUUCAACAUGUAAACCA | 46.7 | 82.4 |
| UCUUUCCACAUGUAAACCA | 28.5 | 38.1 |
| UCUUUCGACAUGUAAACCA | 80.5 | 99 |
| UCUUUCUACAUGUAAACCA | 43.8 | 61.9 |
| UCUUUGAACAUGUAAACCA | 46.8 | 80.6 |
| UCUUUGCACAUGUAAACCA | 13.8 | 55.9 |
| UCUUUGGACAUGUAAACCA | 37.2 | 78.9 |
| UCUUUGUACAUGUAAACCA | 24.1 | 84.1 |
| UCUUUUAACAUGUAAACCA | 83.9 | 88.9 |
| UCUUUUCACAUGUAAACCA | 54.8 | 87.8 |
| UCUUUUGACAUGUAAACCA | 102 | 112 |
| UCUUUUUACAUGUAAACCA | 56.5 | 102 |
| UGAAAAAACAUGUAAACCA | 60.2 | 84.1 |
| UGAAAACACAUGUAAACCA | 44.5 | 68.2 |
| UGAAAAGACAUGUAAACCA | 59.7 | 89.5 |
| UGAAAAUACAUGUAAACCA | 71.4 | 103 |
| UGAAACAACAUGUAAACCA | 47.8 | 87.8 |
| UGAAACCACAUGUAAACCA | 17.8 | 24.9 |
| UGAAACGACAUGUAAACCA | 45.4 | 102 |
| UGAAACUACAUGUAAACCA | 27.6 | 52.4 |
| UGAAAGAACAUGUAAACCA | 65.8 | 81.2 |
| UGAAAGCACAUGUAAACCA | 33.2 | 38.9 |

| Sequence | cell viability (GL261) [%] | cell viability (H4) [%] |
| --- | --- | --- |
| UGAAAGGACAUGUAAACCA | 35.7 | 68.8 |
| UGAAAGUACAUGUAAACCA | 34.5 | 67.8 |
| UGAAAUAACAUGUAAACCA | 66 | 96 |
| UGAAAUCACAUGUAAACCA | 28.8 | 47.3 |
| UGAAAUGACAUGUAAACCA | 61.4 | 72.1 |
| UGAAAUUACAUGUAAACCA | 49.9 | 103 |
| UGAACAAACAUGUAAACCA | 48.3 | 82 |
| UGAACACACAUGUAAACCA | 41.1 | 52 |
| UGAACAGACAUGUAAACCA | 73 | 49.4 |
| UGAACAUACAUGUAAACCA | 39.5 | 87.8 |
| UGAACCAACAUGUAAACCA | 65.3 | 71.9 |
| UGAACCCACAUGUAAACCA | 34.6 | 48.7 |
| UGAACCGACAUGUAAACCA | 65.1 | 88.5 |
| UGAACCUACAUGUAAACCA | 16.9 | 85.6 |
| UGAACGAACAUGUAAACCA | 51.4 | 87.2 |
| UGAACGCACAUGUAAACCA | 44.1 | 81.7 |
| UGAACGGACAUGUAAACCA | 19.6 | 77 |
| UGAACGUACAUGUAAACCA | 37.1 | 75.3 |
| UGAACUAACAUGUAAACCA | 67.2 | 75.3 |
| UGAACUCACAUGUAAACCA | 17.7 | 12.6 |
| UGAACUGACAUGUAAACCA | 41.3 | 83.3 |
| UGAACUUACAUGUAAACCA | 62.3 | 93.9 |
| UGAAGAAACAUGUAAACCA | 28.4 | 104 |
| UGAAGACACAUGUAAACCA | 22.7 | 13.2 |

| Sequence | cell viability (GL261) [%] | cell viability (H4) [%] |
| --- | --- | --- |
| UGAAGAGACAUGUAAACCA | 31.4 | 66.6 |
| UGAAGAUACAUGUAAACCA | 9.33 | 34 |
| UGAAGCAACAUGUAAACCA | 39.8 | 80.5 |
| UGAAGCCACAUGUAAACCA | 13.3 | 13.1 |
| UGAAGCGACAUGUAAACCA | 49.2 | 80.3 |
| UGAAGCUACAUGUAAACCA | 5.64 | 23.5 |
| UGAAGGAACAUGUAAACCA | 20.8 | 52.5 |
| UGAAGGCACAUGUAAACCA | 6.92 | 20.1 |
| UGAAGGGACAUGUAAACCA | 13.4 | 38.6 |
| UGAAGGUACAUGUAAACCA | 8.69 | 31.9 |
| UGAAGUAACAUGUAAACCA | 65.9 | 91 |
| UGAAGUCACAUGUAAACCA | 4.25 | 18.3 |
| UGAAGUGACAUGUAAACCA | 40.1 | 79.5 |
| UGAAGUUACAUGUAAACCA | 14 | 47.2 |
| UGAAUAAACAUGUAAACCA | 82.8 | 98.2 |
| UGAAUACACAUGUAAACCA | 39.2 | 76.7 |
| UGAAUAGACAUGUAAACCA | 62.4 | 103 |
| UGAAUAUACAUGUAAACCA | 59.6 | 86.2 |
| UGAAUCAACAUGUAAACCA | 79.3 | 94.2 |
| UGAAUCCACAUGUAAACCA | 34.6 | 38.3 |
| UGAAUCGACAUGUAAACCA | 76.8 | 90.2 |
| UGAAUCUACAUGUAAACCA | 89 | 80.6 |
| UGAAUGAACAUGUAAACCA | 46.6 | 92.2 |
| UGAAUGCACAUGUAAACCA | 27.6 | 68 |

| Sequence | cell viability (GL261) [%] | cell viability (H4) [%] |
| --- | --- | --- |
| UGAAUGGACAUGUAAACCA | 13.4 | 64.4 |
| UGAAUGUACAUGUAAACCA | 23.2 | 55.9 |
| UGAAUUAACAUGUAAACCA | 56.5 | 108 |
| UGAAUUCACAUGUAAACCA | 21.9 | 60.8 |
| UGAAUUGACAUGUAAACCA | 58 | 103 |
| UGAAUUUACAUGUAAACCA | 52.1 | 97 |
| UGACAAAACAUGUAAACCA | 34.2 | 101 |
| UGACAACACAUGUAAACCA | 22.6 | 61.4 |
| UGACAAGACAUGUAAACCA | 26.3 | 86 |
| UGACAAUACAUGUAAACCA | 28.7 | 66.3 |
| UGACACAACAUGUAAACCA | 60.5 | 62.3 |
| UGACACCACAUGUAAACCA | 16.4 | 12.9 |
| UGACACGACAUGUAAACCA | 58.5 | 75.4 |
| UGACACUACAUGUAAACCA | 36.2 | 26.2 |
| UGACAGAACAUGUAAACCA | 60.4 | 81.3 |
| UGACAGCACAUGUAAACCA | 20.1 | 26.4 |
| UGACAGGACAUGUAAACCA | 35.4 | 70 |
| UGACAGUACAUGUAAACCA | 7.13 | 32.4 |
| UGACAUAACAUGUAAACCA | 45.4 | 81.8 |
| UGACAUCACAUGUAAACCA | 3.83 | 46.6 |
| UGACAUGACAUGUAAACCA | 34.2 | 89.9 |
| UGACAUUACAUGUAAACCA | 29.7 | 67.3 |
